The source gives no read counts; variants with many changes may rest on few reads.
B1: LINE1-mini (parent)
chain: GGCAGAGCUCAACACAGCGUGGCAAAGUGGCUGUGGCUAGACUGCC

Variants of: B1
Assay: self-cleavage, relative activity (ratio to wild type); higher = more cleavage; in vitro, sequencing; the parent is a self-cleaving ribozyme

| Variant | self-cleavage |
| --- | --- |
| GGCAGAGCUCAACACCGCGUAGUAAAGUGGCUGUGGCUAGACUGAC | 0.06 |
| GGCAGAGCUCAACACCGCGUAGCAAAGUGGCUGUAGCUAGGGUGCC | 0.04 |
| GGCAGAGCUCAACACCGCGUAGCAAAGUGGCUGUUACUAGACUGCC | 0.18 |
| GGCAGAGCUCAACACCGCGUCGCAAACUGGCUGUGGCUAGACUGCU | 0.05 |
| GGCAGAGCUCAACACCGCGUUGCAAGGUGGCUGUGGCUAGACUACC | 0 |
| GGCAGAGCUCAACACCGCGUUGCAAAGUGGCUGUGGAUUGACUGCC | 0.05 |
| GGCAGAGCUCAACACCGCGUUGCAAAGUCGCUGUGGCUUGACUGCC | 0.15 |
| GGCAGAGCUCAACACCGCGUGACAUAGUGCCUAUGGCUAGACUGCC | 0.05 |
| GGCAGAGCUCAACACCGCGUGACAAAGUGGCUGUGGCUAGAGUGCC | 0.01 |
| GGCAGAGCUCAACACCGCGUGACAAAGUGGCAGUGGCUAGACUGCC | 0.13 |
| GGCAGAGCUCAACACCGCGUGACAAAGUGGCAUUGGCUAGACUGCC | 0.02 |
| GGCAGAGCUCAACACCGCGUGCCGAAGAGGCUGUGCUUAGAUUGUU | 0.04 |
| GGCAGAGCUCAACACCGCGUGCUAAAGUGGCUAUGGCUAAACUGCC | 0.01 |
| GGCAGAGCUCAACACCGCGUGCCAAAGUGGCUCUGGCUAGACUGCC | 0.14 |
| GGCAGAGCUCAACACCGCGUGUCCAAGUGGCUGUGGCUAGAUUGCA | 0.01 |
| GGCAGAGCUCAACACCGCGUGUCAAAGUGGCUGUGGCUAGACUCCC | 0.04 |
| GGCAGAGCUCAACACCGCGUGGCAAAAUGGCUCUGGCUAGACUGCC | 0 |
| GGCAGAGCUCAACACCGCGUGGCAAAAUGGCUGUUGCGAUACUGCC | 0.01 |
| GGCAGAGCUCAACACCGCGUGGCAAAACGGCUGUGGCUAGACUGCC | 0.12 |
| GGCAGAGCUCAACACCGCGUGGCAAAAUGGCCGUGGCUACAGUGCC | 0.07 |
| GGCAGAGCUCAACACCGCGUGGCAAACUGGCUGUGGCUGGAUUGCC | 0.04 |
| GGCAGAGCUCAACACCGCGUGGCAAACUGGCUGUGGCUAGACUACC | 0.1 |
| GGCAGAGCUCAACACCGCGUGGCAAAUUGACUGUGGCUACACUGCC | 0.04 |

| Variant | self-cleavage |
| --- | --- |
| GGCAGAGCUCAACACCGCGUGGCAAAGUAGCCGUGGCUAGACUGCC | 0.04 |
| GGCAGAGCUCAACACCGCGUGGCAAAGUAGCUGUGGCUAGACAGCC | 0.05 |
| GGCAGAGCUCAACACCGCGUGGCAAAGUCGCUGUGGCUAGACUGAC | 0.14 |
| GGCAGAGCUCAACACCGCGUGGCAAAGUCACUCUGGCUAGACUGCC | 0.06 |
| GGCAGAGCUCAACACCGCGUGGCAAAGUUGCUGUGGCUAGAUUGCC | 0.04 |
| GGCAGAGCUCAACACCGCGUGGCAAAGUUCCUGUGGCUAGACUACC | 0.04 |
| GGCAGAGCUCAACACCGCGUGGCAAAGUGACUGUGGCUAGACUGCU | 0.01 |
| GGCAGAGCUCAACACCGCGUGGCAAAGUGACUUUGGCUAGACUGCC | 0.26 |
| GGCAGAGCUCAACACCGCGUGGCAAAGUGACCGUGGCUAGACUGCC | 0.05 |
| GGCAGAGCUCAACACCGCGUGGCAAAGUGCCUGUGGUUAGACUGCC | 0.06 |
| GGCAGAGCUCAACACCGCGUGGCAAAGUGUCUGUGGCUAGACUUCC | 0.03 |
| GGCAGAGCUCAACACCGCGUGGCAAAGUGGCUAUGACUAGACUGCC | 0.02 |
| GGCAGAGCUCAACACCGCGUGGCAAAGUGGCUUUGGCUAGAUUGCC | 0.12 |
| GGCAGAGCUCAACACCGCGUGGCAAAGUGGCUUUGGCGAGACUGCC | 0.01 |
| GGCAGAGCUCAACACCGCGUGGCAAAGUGGCUGUAACUAGACUGCC | 0.14 |
| GGCAGAGCUCAACACCGCGUGGCAAAGUGGCUGUCGCUCGACUGCC | 0.06 |
| GGCAGAGCUCAACACCGCGUGGCAAAGUGGCUGUUGCUAGCCUGCC | 0.02 |
| GGCAGAGCUCAACACCGCGUGGCAAAGUGGCUGUGACUUGACUGCC | 0.08 |
| GGCAGAGCUCAACACCGCGAGGCAAAGUGGCUGUGUCUAGACUGCC | 0.01 |
| GGCAGAGCUCAACACCGCGCGGCUAAGUGGCUGCGGCUAGACUGCC | 0 |
| GGCAGAGCUCAACACCGCGCGGCAGAGUGGCUGCGGCUAUACUGCC | 0.01 |
| GGCAGAGCUCAACACCGCGCGGCAAAGUGGCUGUGGCUAGCCUGCC | 0.05 |
| GGCAGAGCUCAACACCGCGCGACAAAGUGGCAGUGGCUAGAGUGCC | 0.02 |

| Variant | self-cleavage |
| --- | --- |
| GGCAGAGCUCAACACCGCGCGGCAAAGAGGCUGUGGCUAGACUUCC | 0.05 |
| GGCAGAGCUCAACACCGCGGAUAAAAGUGGCUGUGGCUAGACUGCC | 0.26 |
| GGCAGAGCUCAACACCGCGGGUCAAAGUGGCUGUGGCUAGACUGCU | 0.07 |
| GGCAGAGCUCAACACCGCGUGGCAAAGCAGCUGUGGCUUGAAUGCC | 0.01 |
| GGCAGAGCUCAACACCGCGUGGCAAAGCGGCUGUAGCUAGACUGCU | 0.17 |
| GGCAGAGCUCAACACCGCGUGGCAAAGUGGCAGUGGCUAGACUGCA | 0.03 |
| GGCAGAGCUCAACACCGCGUGGCAAAGUGGCCGUGGCUAGAUUGCC | 0.02 |
| GGCAGAGCUCAACACCGCGUGGCAAAGUGGCGGUGCCUAGACUGCC | 0.03 |
| GGCAGAGCUCAACACCGCGUGGCAAAGUGGCGGUGUCUAGUUUGCC | 0.03 |
| GGCAGAGCUCAACACCGCGUGGCAAAGUGGCUGAGGUUAGACUGCG | 0.07 |
| GGCAGAGCUCAACACCGCGUGGCAAAGUGGCUGAGGCUAGACUCCC | 0.05 |
| GGCAGAGCUCAACACCGCGUGGCAAAGUGGCUGGGGUUAGACUGCC | 0.25 |
| GGCAGAGCUCAACACCGCGUGGCAAAGUGGCUGGCGCUAAACUGCC | 0.04 |
| GGCAGAGCUCAACACCGCGUGGCAAAGUGGCUGGGGCGAGACUGCC | 0.04 |
| GGCAGAGCUCAACACCGCGUGGCAAAGUGGCUGUGGCAACACUGCC | 0.01 |
| GGCAGAGCUCAACACGGCGUGGCCAAGUGGCUGUGGUUAGACUGCC | 0.01 |
| GGCAGAGCUCAACACGGCGUGGCCAAGUGGCUGUGGCUAGACUGGC | 0.02 |
| GGCAGAGCUCAACACGGCGUGGCCAAGUGUCUGUGGCUAGACUGCC | 0.19 |
| GGCAGAGCUCAACACGGCGUGGCGAAGUGGCUGUGGAUAGACUGCC | 0.05 |
| GGCAGAGCUCAACACGGCGUGGCGAAGUGGCUGUGGCUAGACUGCA | 0.38 |
| GGCAGAGCUCAACACGGCGUGGCGAAGUGGCUGCGGCUAGACUGCC | 0.01 |
| GGCAGAGCUCAACACGGCGUGGCUAAGUGGCUUUGGCUAGACUGCC | 0 |
| GGCAGAGCUCAACACGGCGUGGCUAAGUGGCCGUGGCUAGACUGAC | 1.56 |

| Variant | self-cleavage |
| --- | --- |
| GGCAGAGCUCAACACGGCGUGGCACAGUGGCUGUGGCUAGACUGCA | 0.08 |
| GGCAGAGCUCAACACGGCGUGGCACAGUGGCUGUAGCUAGACUGUC | 0.06 |
| GGCAGAGCUCAACACGGCGUGGCACAGUGGCUGUGGCACGACUGCC | 0.17 |
| GGCAGAGCUCAACACGGCGUGGCAGAGUCGCUUUGGCUAGACUGCC | 0.03 |
| GGCAGAGCUCAACACGGCGUGGCAGAGUGGCUCUGGCUAGACUGCC | 0.49 |
| GGCAGAGCUCAACACGGCGUGGCAGAGUGGCUGUGUCUAGACUGCA | 0.03 |
| GGCAGAGCUCAACACGGCGUGGCAUAGUGGCUGUGGCUAGACUGCA | 0.12 |
| GGCAGAGCUCAACACGGCGUGGCAUAGUGGCUCGGGCUAGACUGCG | 0.01 |
| GGCAGAGCUCAACACGGCGUGGCAACGUGAAUGUGGCUAGACUGCC | 0.09 |
| GGCAGAGCUCAACACGGCGUGGCAAAGUGGCUGUGGCUUAAGUGCC | 0.02 |
| GGCAGAGCUCAACACGGCGUGGCAAAGUGGCUGUGGCUAGUCUCCC | 0.03 |
| GGCAGAGCUCAACACGGCGUGGCAAAGUGGCUGUGGCUAGUCAGCC | 0.01 |
| GGCAGAGCUCAACACGGAGUGACAAAGUGGUUGUGGUUAGACUGCC | 0.05 |
| GGCAGAGCUCAACACGGAGUGGCAAAGUGGCUGUGGCUACACUGCC | 0.02 |
| GGCAGAGCUCAACACGGAGGGGCAAAGUGGCUGUGGCUAGACUGCC | 0.06 |
| GGCAGAGCUCAACACGGAGUGGCAAAGUGGCGGUGGCUAGACUACC | 0.01 |
| GGCAGAGCUCAACACGGGGUGGCCAAGUGGCUUUGGCUAGGCUGUC | 0.01 |
| GGCAGAGCUCAACACGGGGUGGUAAAGAGGCUGUGGUUAGACUGCC | 0.01 |
| GGCAGAGCUCAACACGGGUUGGCCAACUGGCUGUGGCUAGACUGCC | 0.01 |
| GGCAGAGCUCAACACGGGGUGGCAAAGGAGCAGUGGCUAGACUGCC | 0.05 |
| GGCAGAGCUCAACACGGUGUGGCAAAGUAGCUGUGGCUAGACUGCC | 0.35 |
| GGCAGAGCUCAACACGGUGUGGCAAAGUGGCUUUGGCUAGACUGCC | 0.16 |
| GGCAGAGCUCAACACGGUGUGGCAAAGGGGCUGUGGCUAGACUGCG | 0.03 |

| Variant | self-cleavage |
| --- | --- |
| GGCAGAGCUCAACACGGUGUGGCAAAGUGGCGGUGGCUAGACUGCC | 0.03 |
| GGCAGAGCUCAACACGGUGUGGCAAAGUGGCUGUGGCAAGACUGCA | 0.22 |
| GGCAGAGCUCAACACGGCGUGGAAUAGUGCCUGUCACUAGACUGCC | 0.03 |
| GGCAGAGCUCAACACGGCGUGGAAAAGAGGCGGUGGCUAGACUGCC | 0.09 |
| GGCAGAGCUCAACACGGCGUGGGAAAGUGGCUGUGGCUAGAGUGCC | 0.02 |
| GGCAGAGCUCAACACGGCGUGGUAAAUUUGCUGUGGCUAGACCGCC | 0.04 |
| GGCAGAGCUCAACACGGCGUGGUAAAGUGGCUAUGGCUAGACUGCC | 0.02 |
| GGCAGAGCUCAACACGGCGUGGUAAAGUGGCUGUGGCUAGACUUCC | 0.12 |
| GGCAGAGCUCAACACGGCGUGGCAAAGUGGAUGUGCCUAGACAGCC | 0.01 |
| GGCAGAGCUCAACACGGCGUGGCAAAGUGGAUGAAGCUGACCAGCC | 0 |
| GGCAGAGCUCAACACGGCGUGGCAAAGUGGGUGUGGGUAAACUGCC | 0 |
| GGCAGAGCUCAACACGGCGUGGCAAAGUGGUUGUGGCUAGACUGGC | 0.03 |
| GGCAGAGCUCAACACGGCGUGGCAAAGUGGUUUUGGCUAGACUGCC | 0 |
| GGCAGAGCUCAACACGGCGUGGCAAAGUGGUUGUGGCUAUACUGCC | 0.01 |
| GGCAGAGCUCAACACGGCGUGGCAAAGUGGCUGUGGAUCGACUGCC | 0.19 |
| GGCAGAGCUCAACACGGCGUGGCAAAGUGGCUGUGGAUAGCCUGCC | 0.02 |
| GGCAGAGCUCAACACGGCGUGGCAAAGUGGCUGUGGAUAGACUGGC | 0.21 |
| GGCAGAGCUCAACACGGCGUGGCAAAGUGGCUGUGGAUAGACUCCC | 0.04 |
| GGCAGAGCUCAACACGGCGUGGCAAAGUGGCUGUGGGUAGACUGAC | 0.05 |
| GGCAGAGCUCAACACGGCGUGGCAAAGUGGCUGUGGCUAGAGUGCG | 0.04 |
